Some of these results come from one statement about several compounds together.
Experiments:
Assay type in all cases: in vivo
Thrips tabaci = Thrips tabaci (onion thrips), sunflower leaf disc spray test; details: application rate of 200 ppm; mortality 6 days after infestation; mixed ages
Method: Thrips tabaci (Onion Thrips):
(§1) Sunflower leaf discs were placed on agar in 24-well microtiter plates and sprayed with aqueous test solutions prepared from 10′000 ppm DMSO stock solutions. After drying the leaf discs were infested with a thrips population of mixed ages. The samples were assessed for mortality 6 days after infestation.

Myzus persicae = Myzus persicae (green peach aphid), sunflower leaf disc spray test; details: application rate of 200 ppm; 6 days after infestation; mixed ages
Method: Myzus persicae (Green Peach Aphid):
Sunflower leaf discs were placed on agar in a 24-well microtiter plate and sprayed with aqueous test solutions prepared from 10′000 ppm DMSO stock solutions. After drying, the leaf discs were infested with an aphid population of mixed ages. The samples were assessed for mortality 6 days after infestation.

Diabrotica balteata = Diabrotica balteata (corn rootworm), sprayed maize sprouts; details: application rate of 200 ppm, 4 days after infestation, L2 larvae
Method: Diabrotica balteata, (Corn Rootworm)
Maize sprouts, placed on an agar layer in 24-well microtiter plates were treated with aqueous test solutions prepared from 10′000 ppm DMSO stock solutions by spraying. After drying, the plates were infested with L2 larvae (6 to 10 per well). The samples were assessed for mortality 4 days after infestation.

Tetranychus urticae = Tetranychus urticae (two-spotted spider mite), bean leaf disc spray test; details: application rate of 200 ppm; mortality (mobile stages) 8 days after infestation; mixed ages
Method: Tetranychus urticae (Two-Spotted Spider Mite):
as §1, with “Bean” for “Sunflower”, “discs” for “discs were placed”, “were” for “and”, “mite” for “thrips”, “(mobile stages) 8” for “6”

Plutella xylostella = Plutella xylostella (diamond back moth), L2 larvae on artificial diet; details: application rate of 200 ppm, mortality and growth inhibition 5 days after infestation
Method: Plutella xylostella (Diamond Back Moth):
24-well microtiter plates with artificial diet were treated with aqueous test solutions prepared from 10′000 ppm DMSO stock solutions by pipetting. After drying, the plates were infested with L2 larvae (10 to 15 per well). The samples were assessed for mortality and growth inhibition 5 days after infestation. Control of Plutella xyllostella by a test sample is noted when at least one of mortality and growth inhibition is better than the untreated sample.

Spodoptera littoralis = Spodoptera littoralis (Egyptian cotton leaf worm), cotton leaf disc spray test; details: application rate of 200 ppm; mortality, anti-feedant effect, growth inhibition 3 days after infestation; L1 larvae
Method: Spodoptera littoralis (Egyptian Cotton Leaf Worm)
Cotton leaf discs were placed on agar in 24-well microtiter plates and sprayed with aqueous test solutions prepared from 10′000 ppm DMSO stock solutions. After drying the leaf discs were infested with five L1 larvae. The samples were assessed for mortality, anti-feedant effect, and growth inhibition 3 days after infestation. Control of Spodoptera littoralis by a test sample is noted when at least one of mortality, anti-feedant effect, and growth inhibition is better than the untreated sample.

CCC(C)NS(=O)(=O)CSc1ccc(C2=NOC(c3cc(Cl)cc(Cl)c3)(C(F)(F)F)C2)cc1Br (stereo not drawn) [Compound C25]
at least 80%: control of Thrips tabaci (Thrips tabaci) | mortality of Myzus persicae (Myzus persicae) | mortality of Diabrotica balteata (Diabrotica balteata) | control of Tetranychus urticae (Tetranychus urticae) | control of Plutella xylostella (Plutella xylostella) | control of Spodoptera littoralis (Spodoptera littoralis)

CCN(CC)S(=O)(=O)CSc1ccc(C2=NOC(c3cc(Cl)cc(Cl)c3)(C(F)(F)F)C2)cc1Br (stereo not drawn) [Compound C41]
at least 80%: control of Thrips tabaci (Thrips tabaci) | mortality of Myzus persicae (Myzus persicae) | mortality of Diabrotica balteata (Diabrotica balteata) | control of Tetranychus urticae (Tetranychus urticae) | control of Plutella xylostella (Plutella xylostella) | control of Spodoptera littoralis (Spodoptera littoralis)

O=S(=O)(CSc1ccc(C2=NOC(c3cc(Cl)cc(Cl)c3)(C(F)(F)F)C2)cc1Br)NCCC1OCCO1 (stereo not drawn) [Compound C26]
at least 80%: control of Thrips tabaci (Thrips tabaci) | mortality of Myzus persicae (Myzus persicae) | mortality of Diabrotica balteata (Diabrotica balteata) | control of Tetranychus urticae (Tetranychus urticae) | control of Plutella xylostella (Plutella xylostella) | control of Spodoptera littoralis (Spodoptera littoralis)

COCCN(C)S(=O)(=O)CSc1ccc(C2=NOC(c3cc(Cl)cc(Cl)c3)(C(F)(F)F)C2)cc1Br (stereo not drawn) [Compound C50]
at least 80%: control of Thrips tabaci (Thrips tabaci) | mortality of Myzus persicae (Myzus persicae) | mortality of Diabrotica balteata (Diabrotica balteata) | control of Tetranychus urticae (Tetranychus urticae) | control of Plutella xylostella (Plutella xylostella) | control of Spodoptera littoralis (Spodoptera littoralis)

O=S(=O)(CSc1ccc(C2=NOC(c3cc(Cl)cc(Cl)c3)(C(F)(F)F)C2)cc1Br)NC1CCSC1 (stereo not drawn) [Compound C32]
at least 80%: control of Thrips tabaci (Thrips tabaci) | mortality of Myzus persicae (Myzus persicae) | mortality of Diabrotica balteata (Diabrotica balteata) | control of Tetranychus urticae (Tetranychus urticae) | control of Plutella xylostella (Plutella xylostella) | control of Spodoptera littoralis (Spodoptera littoralis)

CC(C)N(C)S(=O)(=O)CSc1ccc(C2=NOC(c3cc(Cl)cc(Cl)c3)(C(F)(F)F)C2)cc1Br (stereo not drawn) [Compound C55]
at least 80%: control of Thrips tabaci (Thrips tabaci) | mortality of Myzus persicae (Myzus persicae) | mortality of Diabrotica balteata (Diabrotica balteata) | control of Tetranychus urticae (Tetranychus urticae) | control of Plutella xylostella (Plutella xylostella) | control of Spodoptera littoralis (Spodoptera littoralis)
